Over roughly 33,000 sequences, “E-score (-0.5 to 0.5)” has its median near -0.035; the highest 2% begin near 0.34. This is one part of the list.
target: T1, Mot3 (UniProt P54785); assay: PBM E-score (8-mer binding enrichment) (E-score (-0.5 to 0.5)); higher = stronger / more preferred TF binding; most listed sequences are background and not binding sites; settings: protein concentration: 200 nM; construct: GST-full length
T1 sequence: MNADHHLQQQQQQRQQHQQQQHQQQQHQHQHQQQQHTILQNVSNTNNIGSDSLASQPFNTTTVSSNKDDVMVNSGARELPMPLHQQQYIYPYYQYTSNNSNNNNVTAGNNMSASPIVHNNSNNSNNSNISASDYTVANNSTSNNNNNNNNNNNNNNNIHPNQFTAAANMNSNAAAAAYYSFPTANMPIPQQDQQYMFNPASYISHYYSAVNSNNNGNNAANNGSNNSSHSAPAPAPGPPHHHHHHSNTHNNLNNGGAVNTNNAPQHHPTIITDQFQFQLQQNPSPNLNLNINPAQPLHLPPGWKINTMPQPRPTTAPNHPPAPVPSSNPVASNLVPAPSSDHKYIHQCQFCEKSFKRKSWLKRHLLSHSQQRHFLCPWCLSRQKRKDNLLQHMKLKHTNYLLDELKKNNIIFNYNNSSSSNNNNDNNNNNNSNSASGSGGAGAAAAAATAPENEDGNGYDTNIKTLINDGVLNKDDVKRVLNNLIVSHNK
In short: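 Universal all-10-mer Agilent arrays, double-stranded by primer extension on fresh or once-stripped slides, were probed with about 100-200 nM GST-tagged yeast transcription factors made by PURExpress. Fluorescent anti-GST detected bound protein, and masliner normalised the scans. E-scores from the Universal PBM Analysis Suite were given to each ungapped eight-base word pooled with its reverse complement.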

Sequence	PBM E-score
AATGATTG	0.151
ACAAAGCC	0.0921
CGGTTTAG	-0.0742
AGCAGAAT	0.059
TCCAGCAA	-0.185
AGTCGGAA	-0.143
GGGTGACA	-0.13
CTACGATA	-0.00283
GTGGCGCA	-0.0264
AGACTGTA	-0.109
ATCACGTC	0.0161
AATGAAAA	0.0669
ACTGTCGG	-0.227
AATGGTGG	-0.22
TCCTGAAA	0.0779
CCGTCCAC	-0.104
AGGTTATC	0.041
AGATCGGG	-0.295
ATAAAAGA	0.0356
GCTCTAAA	-0.0215
CCTATTCC	0.035
GCGTCGGA	0.0189
ACGCTTGG	-0.0287
CTGCTTGA	-0.0624
GAATCAGA	-0.0311

Sequence	PBM E-score
AGATAGAC	0.0786
ATATATGC	-0.0335
CAAGATTC	-0.0018
ACAGTATC	0.0766
AGCTAACT	-0.158
GACGGACC	-0.246
AGGGAACT	-0.0302
GCTATGGA	-0.332
ATGAATAA	0.0706
CTCCTTCC	-0.00162
ACGCAGAT	0.0549
CAAGGGCG	-0.0955
ATCTGGGA	-0.133
CGCGCATC	-0.214
CCAAGCCA	-0.154
AAGAAAAG	-0.00025
TCGTACAA	0.167
CACTACTG	-0.271
AATAACAA	0.166
GAAGGCCA	-0.0342
ACCATTCA	0.116
ACAGCCGC	-0.178
CAACGCGG	0.0945
ATTGACCG	0.131
CCCAGATA	-0.365

Sequence	PBM E-score
ATCTTATA	-0.056
GGTTCAAC	-0.0537
AAGATAGT	-0.143
ACAAGCCG	0.111
GAACACGA	0.187
ATAGAGTA	0.117
TCGACACA	0.179
GGTGCGAA	-0.0836
CCGGCTGA	-0.204
CACTACCG	-0.239
GGGGCGTA	-0.00086
CCAGCTCA	-0.199
ACTTTGTC	-0.0322
CGACGGTC	-0.104
GGTTGGAC	-0.255
AAGTGCTA	-0.0884
AGCGTCGA	-0.0838
CAAACAGC	-0.0942
AATGGCCA	-0.235
AGCTTTCA	0.0997
ACCCCGAT	-0.187
GATCATGA	0.0657
CTCATCAC	0.033
GCTGCATA	-0.0875
CACCTTGC	0.0972

Sequence	PBM E-score
TGGCTACA	-0.00828
CAAACAAA	0.119
AAGGGAGA	-0.00996
CGCGCAAA	0.0262
AAGGGCCA	-0.103
ACTGCGTA	0.159
ATAACATA	0.344
CGCCCGAG	-0.207
CTGGGTAA	-0.0878
ACTCCTAA	-0.0764
TCCACTAA	0.102
ATACACGC	0.37
CTGCCCCA	-0.213
ATCGGGTG	-0.126
ATTGTACG	0.0405
GTCCAGTA	-0.13
AACACAAT	0.277
GCTATGAA	0.0777
GAAACTAA	-0.0415
AGGGCCTA	-0.0122
ACGCTTTC	-0.0519
CTGGCATC	-0.105
TCCGGTCA	-0.108
AATGTGCT	-0.0246
AATCCGCA	-0.096

Sequence	PBM E-score
CTATGGTC	-0.262
CTGGCGTA	0.0713
AAGGTATC	-0.035
CCTAAGTC	-0.128
AGTGAAAT	-0.0218
ACGGTGGA	-0.067
GAGCCCAC	-0.275
CCTGAACA	0.23
AGGCAGAC	-0.0304
GACTTCTA	-0.184
ACTCGACT	-0.101
GGGCGTAA	0.135
CTGGCCTC	-0.244
CCTCTAAG	-0.189
CATTGGAA	0.115
ACCATCAG	-0.0992
CCCTGAGC	-0.295
ACTTCACC	-0.111
AGCTTATA	-0.0822
ACTATAGG	0.0442
CAAAGTAG	0.0427
AATCTCCA	-0.138
CGGGGGAC	-0.364
TATGCCCA	-0.186
AAATGCAC	0.0764

Sequence	PBM E-score
ATCAAGTG	-0.0111
TAGTGTAA	0.206
GGCCTCTA	-0.132
GAGATAGA	0.0769
TCCATGGA	0.0305
CCATATTA	0.109
GTGATTGA	0.145
CGCAAACC	-0.037
AAGTGTAC	0.0824
GGTTGAAA	-0.0271
AACTTCAG	0.0391
AGGAGTTC	0.0672
ACCTGCTG	0.144
AAGGAAGA	-0.0092
AAACCCGA	0.00505
AGGCATGC	0.297
CGCGAGAC	-0.11
CCCATGTA	0.377
ATGACCCA	0.00523
CCCATAGC	-0.311
CTATATTA	0.251
CCCTGGAG	-0.0916
ATTGTAGG	0.329
AGGGGACA	-0.183
CCAAATTC	-0.123

Sequence	PBM E-score
CTACTGAA	0.0666
TACTTCAA	0.0493
CGGGCAAG	-0.0786
GTCGGGAA	-0.104
CCCCCGTA	-0.197
CCTACCTC	-0.104
CATGTCTC	-0.00903
CAAGGTAC	0.376
AGAGTTGG	-0.193
GGTGGCAA	-0.286
CGTCTGAG	-0.102
CAACGTAA	0.298
ATAATTGC	0.177
CGATAAGA	-0.0413
ATTACAGA	0.24
AAGAAGTG	0.0314
ATACGTAC	0.228
CGTTCATC	0.0679
ATACATAG	0.299
CATGACAG	0.024
ATAAGAGA	-0.0923
GTGAAATA	0.139
ATAAAACC	-0.259
CTACGCGA	0.232
AACTTCAA	0.152

Sequence	PBM E-score
AAATGAGT	0.0592
ACGAAAGT	0.04
GCAAGCGC	-0.128
GGACACCC	-0.36
AAGCGAGC	-0.0719
TGGACCCA	-0.182
AACCAATC	-0.0822
TGCGCCCA	-0.243
TGACAAAA	0.0873
AGATACAT	0.246
TCACGGGA	-0.125
CCCGTCAG	-0.271
AACTGTGA	-0.134
GGAAAGTA	0.215
ACCCCTCA	-0.13
CAGCTTAA	0.0654
GAACCTGA	-0.00989
CATCGCAA	-0.0405
ACACGACT	0.289
GGACAACA	0.112
ACCTTCGA	0.0734
AGGTTGCG	-0.162
TACGGTCA	-0.081
CGAGCTAC	-0.158
ACCGTTGC	-0.128

Sequence	PBM E-score
CACGACTG	-0.0316
CCTACGGC	-0.0487
TCGCGGCA	-0.223
GATCATAA	0.0411
AGTCCTAC	-0.125
AAACATAC	0.22
CATTAATC	0.0727
AGGACCAT	-0.148
GGAGGTCA	-0.209
ATGCGATC	-0.133
ATGAAAGG	0.102
GCGAACCA	-0.0792
CCACGCAG	0.01
CGACTCCC	-0.203
ACCATACT	-0.0125
TAAGAAGA	0.0425
ATACCGAT	-0.144
AAAGATGC	0.132
AATTATAA	0.164
TACCTTGA	0.288
CCCAAATA	-0.0495
GAAGACCC	-0.266
TAAATGGA	0.0377
ATGTCAAG	0.256
AAATAGGC	0.331

Sequence	PBM E-score
AGTATGGG	-0.104
CTAATAGC	-0.0568
CATAAGAA	0.216
GGAGCCTA	0.271
AAGTGCGC	-0.171
GTATAAAC	0.186
GAGGCGCA	-0.126
CAAGGGCC	-0.25
AAGTTCCA	-0.0886
ATAGTTTG	0.136
AGCCACGC	-0.18
CAAATGAA	0.0984
TCCCCCCA	-0.354
AAAACCCC	-0.0261
TCTACACA	0.361
CCCGCAGA	-0.147
GCCTTGAA	0.276
AATCCTAG	-0.0582
ATGCGATA	-0.0922
GCGGTTTA	-0.0306
ATGCGAGG	-0.168
AAACGTTC	0.0317
AGCTAGAA	-0.164
AGCTGAGA	0.00136
GGACGACC	-0.252

Sequence	PBM E-score
CAGCAACG	0.0367
CCCGGTCG	-0.273
ATGGCTCC	-0.0462
AAATTGCC	0.164
CCGCGACC	-0.299
TAAAGTTA	0.0979
GAGGCTCC	-0.069
GTGCTGTA	0.0626
GAGACCGC	-0.142
CGCTTGTC	-0.0636
CCAGCATC	-0.224
AATCGTAA	0.0756
CATGAATC	-0.00284
AGCAGCGG	-0.27
ACCGCTCT	-0.187
CTGATCTA	-0.0493
CTACCCCA	-0.248
ATAAAGAA	0.169
AAAAGGTA	0.289
ACTCCGAA	-0.194
CATGTAAA	0.436
ACTATTAG	-0.0953
TAGTCATA	-0.0322
GGAAGACA	0.031
AATACCAT	0.18

Sequence	PBM E-score
CCAATGGC	-0.266
AGTCAGCC	-0.239
CCGAGTCA	-0.157
TACCCGGA	-0.0694
GATAAAAC	-0.0135
CAATCATA	0.0739
TAAGGGCA	0.112
ACCAGGGC	-0.151
ATCGGTAG	-0.0799
AACACTGC	0.0467
ACTACGGA	-0.0706
ATTCAAGC	0.0242
TCTGGTCA	-0.0723
CACTAGGC	0.156
AGGAGTGG	-0.16
CACCAAAA	0.15
ATTACTTG	0.248
ATGCGCTG	-0.00636
CACCAAAC	0.0828
ACACGCAT	0.294
CTGTGACC	-0.204
GCGCCTAC	0.358
CCGCCGTA	-0.264
GAGGAACA	0.176
CCCCCCAA	-0.362

Sequence	PBM E-score
CCCGTGGA	-0.314
GAACTCTC	-0.159
AATACGGT	0.117
GGGTGGGA	-0.317
AGAAGGCG	0.27
CTGGATCC	-0.134
GATCCTTA	0.0998
AATCTTTA	0.127
CCCGGTAA	-0.0361
ACTACTAA	0.115
AAATTCGT	0.0284
AACTCTAT	-0.0704
TCCCTGAA	-0.0633
CTAGTCTA	-0.318
ACCAGTTG	0.026
TAGCAAAA	0.0209
GTGACCAC	-0.231
CTACCATA	-0.14
CCTAGACC	-0.0345
AACCAGGA	0.0718
CGCCACGC	-0.224
CTATAGAG	-0.107
CCTTGGTC	-0.00825
AAAAGCTC	-0.174
CGTGTAAA	0.438

Sequence	PBM E-score
CGCAGGAA	0.356
TACTTAAA	0.115
CCTATCAA	0.0628
CAGCGGCG	-0.0232
CAGGATGA	-0.185
AACGCTGA	0.111
TGTAAAAA	0.379
ACTTGACT	0.0659
CGCTCCTA	-0.136
CAATATGC	-0.0568
AGGTTTTA	-0.0611
ATCGCGTC	0.0723
AGTGCACG	-0.057
CGCCGCAA	-0.0254
CGATTGCC	0.261
AAGTGTAT	0.117
CTCGATAC	0.24
AGCAAAAG	-0.101
CCTAGAAA	0.0447
